# Experimental data from publication PMC4336329 (PLoS ONE, 2015).
# Out of some 310,000 compounds screened, about 2,200 (0.71%) showed an effect of 50% or more. Effects have a minus sign here. Some of the results follow.
# Target: human ether-à-go-go-related gene (hERG) potassium channel (human, UniProt Q12809)
# Assay: primary screen, population patch clamp on CHO cells stably expressing hERG
# Chain of human ether-à-go-go-related gene (hERG) potassium channel (Q12809 whole entry, looked up): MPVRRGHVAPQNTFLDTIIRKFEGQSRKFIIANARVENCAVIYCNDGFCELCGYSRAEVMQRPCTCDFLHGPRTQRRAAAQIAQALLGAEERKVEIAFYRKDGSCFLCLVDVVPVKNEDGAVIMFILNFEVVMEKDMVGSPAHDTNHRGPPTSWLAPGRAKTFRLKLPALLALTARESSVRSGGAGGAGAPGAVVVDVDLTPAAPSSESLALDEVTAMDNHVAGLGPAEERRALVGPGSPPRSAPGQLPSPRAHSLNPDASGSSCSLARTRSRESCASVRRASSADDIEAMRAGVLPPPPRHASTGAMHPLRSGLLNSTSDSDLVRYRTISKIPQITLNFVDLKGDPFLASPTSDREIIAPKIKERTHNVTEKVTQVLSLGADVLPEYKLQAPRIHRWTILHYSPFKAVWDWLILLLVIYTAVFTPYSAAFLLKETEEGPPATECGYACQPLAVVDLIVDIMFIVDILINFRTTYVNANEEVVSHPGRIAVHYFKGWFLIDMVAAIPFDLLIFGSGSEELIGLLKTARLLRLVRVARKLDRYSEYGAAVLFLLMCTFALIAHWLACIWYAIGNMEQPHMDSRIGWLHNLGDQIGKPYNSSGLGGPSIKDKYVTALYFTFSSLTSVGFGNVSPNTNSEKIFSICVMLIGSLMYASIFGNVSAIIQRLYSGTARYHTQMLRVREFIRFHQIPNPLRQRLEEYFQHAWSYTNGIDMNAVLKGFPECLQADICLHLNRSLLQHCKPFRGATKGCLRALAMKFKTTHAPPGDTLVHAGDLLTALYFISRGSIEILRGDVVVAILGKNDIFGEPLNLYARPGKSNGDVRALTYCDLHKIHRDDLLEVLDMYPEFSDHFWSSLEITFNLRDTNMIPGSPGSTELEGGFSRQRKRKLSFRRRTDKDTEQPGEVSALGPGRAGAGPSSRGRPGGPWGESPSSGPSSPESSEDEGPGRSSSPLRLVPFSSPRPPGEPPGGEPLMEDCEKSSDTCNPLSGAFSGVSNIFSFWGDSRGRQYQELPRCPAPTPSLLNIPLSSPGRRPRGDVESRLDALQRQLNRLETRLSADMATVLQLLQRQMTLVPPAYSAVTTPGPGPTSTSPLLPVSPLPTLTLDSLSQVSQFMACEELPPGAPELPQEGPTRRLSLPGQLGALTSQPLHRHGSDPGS
row,Compound,"hERG current change (%, negative = inhibition) at 1uM"
1,Cc1cc(C(=S)N2CCOCC2)c(C)n1-c1ccc(F)cc1,0.42%
2,COc1cccc(N2CCN(CC(=O)NCc3cccs3)CC2)c1,9.39%
3,COc1cc(CC(=O)OCC(=O)Nc2cc([N+](=O)[O-])ccc2Cl)cc(OC)c1OC,-2.69%
4,CCC(C(=O)Nc1cc(OC)c(NC(=O)c2ccccc2)cc1OC)c1ccccc1 (centres unmarked),12.9%
5,CC1(C)CC(=O)C2=C(C1)NC(=O)CC2c1ccc(N(CCC#N)CCC#N)cc1 (centres unmarked),12.4%
6,Cc1ccc(S(=O)(=O)CC(=O)c2cc(C)c(OC(=O)N(C)C)c(C)c2)cc1,18.6%
7,O=C(N/N=C/c1ccc(OCc2ccccc2)cc1)c1ccco1,12.1%
8,COC(=O)CS(=O)(=O)c1ccc2c(c1)CC(=O)N2,9.47%
9,Cn1nnc2cc(NC(=O)Nc3cccc(Cl)c3)ccc21,1.69%
10,O=C1CC(c2cccc(F)c2)c2c(c3ccccc3[nH]c2=O)O1 (centres unmarked),14.3%
11,COc1cc(NC(=O)c2ccc(NC3=NC4CS(=O)(=O)CC4S3)cc2)cc(OC)c1 (centres unmarked),1.02%
12,Cc1cccc(S(=O)(=O)c2c(C)cc(C)nc2Cl)c1,4.08%
13,Cc1c(C(=O)Nc2ccccc2)c2ccc(C(F)(F)F)cc2n1O,11.6%
14,CN(C)c1cccc(C(=O)NCc2ccccc2)c1,11%
15,C/C=C(/C)C(=O)OC1c2c(ccc3ccc(=O)oc23)OC(C)(C)C1OC(C)=O (centres unmarked),-36.9%
16,COC(=O)CCC(=O)c1oc2ccc(OC)cc2c1N,13.1%
17,Cc1ccc(N(NC(=O)C(O)(c2ccccc2)c2ccccc2)C(=O)CCl)cc1,6.66%
18,CCSc1ccccc1C(=O)NCCc1ccccc1,16.5%
19,Cc1ccc(S(=O)(=O)/N=C(/Nc2cccc(C(=O)O)c2)c2ccccc2)cc1,18.3%

row,Compound,"hERG current change (%, negative = inhibition) at 1uM"
1,COCC(C)NS(=O)(=O)c1ccc(NC(=O)c2ccccn2)cc1 (centres unmarked),8.92%
2,Cc1ccc(NC(=O)Nc2cc(C)on2)cc1,1.65%
3,COCCNC(=O)c1ccccc1NC(=O)c1ccc(OC)c(OC)c1,4.05%
4,COC(=O)c1ccccc1NC(=O)CN(C)S(=O)(=O)c1ccc(OC)c(C)c1,-3.84%
5,CCOC(=O)C1CCN(CC(=O)c2ccc(O)c(C)c2O)CC1,12.3%
6,Cc1ccc(F)cc1NC(=O)N1CCN(C2c3ccccc3-c3ccccc32)CC1,20.8%
7,CCCCN(C)C(=O)c1coc(=O)c2ccccc12,12.3%
8,O=C(c1ccco1)N1CCN(C(=O)c2ccccc2OCc2ccc(Cl)cc2)CC1,-22.9%
9,COc1ccc([C@H]2CC(=O)C=C(/C=C/c3ccc(Cl)cc3)C2)cc1,16.5%
10,CCOC(=O)N1CCN(c2nc(-c3ccc(OC)cc3)no2)CC1,13.5%
11,COc1cc2c(C(=O)N3CCN(C)CC3)c(CSc3ccccc3)n(C)c2cc1Br,-2.94%
12,Cc1ccc(S(=O)(=O)Nc2ccc(NC(=O)c3ccc(F)cc3)cc2)cc1,-3.98%
13,COc1ccc(O)c(C(=O)c2cnc3c(c2)c(=O)[nH]c(=O)n3C)c1,10.2%
14,O=C(NCc1nc2ccccc2[nH]1)C1=C[C@H](c2ccc3c(c2)OCO3)C[C@H](OCc2ccc(CO)cc2)O1,6.34%
15,CCOC(=O)c1sc(C)c2c(=O)n(CCCN3CCOCC3)cnc12,12.5%
16,O=S(=O)(c1ccccc1C(F)(F)F)N1CCN(S(=O)(=O)c2ccccc2C(F)(F)F)CC1,2.31%
17,O=C(NC1CCCN(CCc2ccccc2)C1)c1c[nH]c2ccccc12 (centres unmarked),-31.3%
18,CCSc1nncn1/N=C/c1ccc(OC)c(OC)c1,3.26%
19,COC(=O)C1=C(C)N(Cc2ccco2)C(=O)C1,6.72%

row,Compound,"hERG current change (%, negative = inhibition) at 1uM"
1,COc1cccc(Nc2nc(N)c([N+](=O)[O-])c(NCc3ccco3)n2)c1,5.63%
2,COc1cccc(N2C(=O)/C(=C/c3ccc(C)o3)C(=O)NC2=S)c1,19.1%
3,COc1ccccc1C(=O)NN(C)C1=NS(=O)(=O)c2ccccc21,19%
4,Cn1c(SCCN2CCCC2)nnc1C1CCN(S(=O)(=O)c2ccc(F)cc2)CC1,11%
5,C[C@H](NC(=O)c1nc[nH]c1C(=O)N[C@@H](Cc1ccccc1)C(=O)OC(C)(C)C)C(=O)OC(C)(C)C,3.44%
6,Cc1c(C(=O)Nc2c(C)n(C)n(-c3ccccc3)c2=O)oc2ccccc12,13.7%
7,O=C(COc1cccnc1[N+](=O)[O-])N1CCN(S(=O)(=O)c2ccc3ccccc3c2)CC1,-0.433%
8,COc1cccc(-c2cc(C(=O)N3CCCc4ccccc43)no2)c1,3.79%
9,O=C(CSC1=NS(=O)(=O)c2ccccc2N1)Nc1ccc(F)cc1,11.6%
10,Cc1cccc(/C=C2\Sc3ccc(C(=O)N4CCC(C)CC4)cc3N(C)C2=O)c1,13.4%
11,CN(Cc1ccccc1)CC(O)COc1ccc(CNCc2nccn2C)cc1 (centres unmarked),-39.3%
12,CCCCc1c(O)nc(SCC(=O)N2CCCCCC2)[nH]c1=O,4.87%
13,CCCN(C(=O)Cc1nc(N)n[nH]1)C1(C(=O)Nc2ccccc2C)CCCCC1,10.6%
14,CCn1c(/C=C/c2c[nH]c3ccccc23)nc2ccccc2c1=O,13.1%
15,CC1CCN(c2ccc([N+](=O)[O-])cc2C(=O)NCC2CCCO2)CC1 (centres unmarked),5.42%
16,CCCc1nc2ccccc2n1C(=S)SC,5.56%
17,CCOc1ncccc1C(=O)N(CC)CC(=O)NCc1ccc(F)cc1,11.6%
18,CCC(C)(C)n1nnnc1C(c1ccccn1)N1CCOCC1 (centres unmarked),7.25%
